# In PMC4336329 (PLoS ONE, 2015):
# The whole screen tested about 310,000 compounds, of which about 2,200 (0.71%) showed an effect of 50% or more. The effect is printed as a negative number. The list shows a part of the results.
# Target: human ether-à-go-go-related gene (hERG) potassium channel (human, UniProt Q12809)
# Assay: primary screen, population patch clamp on CHO cells stably expressing hERG
# human ether-à-go-go-related gene (hERG) potassium channel, sequence (Q12809 whole entry, looked up): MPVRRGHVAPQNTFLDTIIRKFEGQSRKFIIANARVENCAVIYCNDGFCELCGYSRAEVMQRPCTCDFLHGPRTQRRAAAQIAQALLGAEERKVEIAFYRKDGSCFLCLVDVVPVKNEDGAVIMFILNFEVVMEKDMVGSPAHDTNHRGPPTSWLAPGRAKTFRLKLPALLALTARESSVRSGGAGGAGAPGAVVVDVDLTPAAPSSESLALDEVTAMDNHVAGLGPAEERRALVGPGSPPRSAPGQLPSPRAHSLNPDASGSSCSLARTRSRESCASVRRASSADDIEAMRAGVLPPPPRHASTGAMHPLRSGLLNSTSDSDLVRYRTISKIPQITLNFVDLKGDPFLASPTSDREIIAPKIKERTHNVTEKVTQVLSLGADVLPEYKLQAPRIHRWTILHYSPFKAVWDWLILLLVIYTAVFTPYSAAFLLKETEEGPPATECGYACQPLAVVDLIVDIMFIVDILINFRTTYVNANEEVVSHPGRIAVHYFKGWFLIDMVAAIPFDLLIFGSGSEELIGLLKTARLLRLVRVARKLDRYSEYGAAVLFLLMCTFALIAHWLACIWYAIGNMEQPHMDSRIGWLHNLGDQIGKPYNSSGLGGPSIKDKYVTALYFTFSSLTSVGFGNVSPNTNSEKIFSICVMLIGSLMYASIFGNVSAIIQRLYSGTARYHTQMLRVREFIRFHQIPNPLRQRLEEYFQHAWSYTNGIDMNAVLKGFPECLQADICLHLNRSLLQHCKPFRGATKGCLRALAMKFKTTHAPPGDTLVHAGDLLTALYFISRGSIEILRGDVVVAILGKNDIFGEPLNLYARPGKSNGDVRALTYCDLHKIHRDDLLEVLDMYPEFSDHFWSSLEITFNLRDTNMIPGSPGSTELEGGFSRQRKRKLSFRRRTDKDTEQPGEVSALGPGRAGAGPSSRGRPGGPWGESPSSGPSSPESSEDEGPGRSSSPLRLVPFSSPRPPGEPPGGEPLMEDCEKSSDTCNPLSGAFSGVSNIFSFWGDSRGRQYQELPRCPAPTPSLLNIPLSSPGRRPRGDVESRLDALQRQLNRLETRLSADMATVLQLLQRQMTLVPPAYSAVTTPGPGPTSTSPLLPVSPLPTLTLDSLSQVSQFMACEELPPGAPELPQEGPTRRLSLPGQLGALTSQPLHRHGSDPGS
row,SMILES,"hERG current change (%, negative = inhibition) at 1uM"
1,COc1ccccc1NC(=O)N1CCN(c2ccccc2F)CC1,14.1%
2,O=C(c1cccc(-c2ccc(O)cc2)c1)N1CCN(c2ccc(F)cc2)CC1,17.1%
3,Cc1[nH]n(-c2ccccc2)c(=O)c1C(c1ccc([N+](=O)[O-])cc1)c1c(C)[nH]n(-c2ccccc2)c1=O,10.5%
4,COCCNC(=S)N/N=C/c1ccc([N+](=O)[O-])cc1,12%
5,CCOC(=O)c1c(NC(=O)Cn2nnc(-c3ccc(Cl)cc3)n2)sc(C)c1C,10.9%
6,O=C(CSc1nc2ccccc2o1)Nc1nc(-c2ccccc2)c(-c2ccccc2)s1,9.62%
7,CCCCN(C(=O)/C=C/c1ccco1)c1c(N)n(CC(C)C)c(=O)[nH]c1=O,21%
8,Cc1ccc(C(=O)N2CCN(c3ccccc3)CC2)cc1C,9.14%
9,COc1ccc(/C=N/N(Cc2ccccc2)c2ccccc2)cc1O,10.7%
10,O=C(c1ccc(COc2ccc(Cl)cc2)cc1)N1CCCCC1,16.6%
11,Cc1cc(NC(=O)c2cnn3c(C(F)(F)F)cc(-c4ccccc4)nc23)no1,1.77%
12,O=C(Nc1cc(Cl)ccc1Cl)C1CC(=O)N(c2ccccc2)C1 (centres unmarked),11%
13,Cc1ccc(-c2nn[nH]n2)cc1,-4.43%
14,COC(=O)CC1SC(=O)NC1=Nc1cccc(C)c1 (centres unmarked),13.5%
15,O.O=C(O)c1cc(=O)c2c(Cl)cc(Cl)cc2[nH]1,8.2%
16,CCOC(=O)Cn1c(=O)n(Cc2ccco2)c(=O)c2ccc(C(=O)NC3CCCC3)cc21,-8.71%
17,O=C(Nc1cc(S(=O)(=O)N2CCOCC2)ccc1N1CCCC1)C1COc2ccccc2O1 (centres unmarked),4.92%
18,Cc1cc(C)n(CCC(=O)N2CCCC(N3CCN(c4cccc(Cl)c4)CC3)C2)n1 (centres unmarked),4.93%
19,CN1/C(=C\C(=O)Nc2ccc(F)cc2)C(C)(C)c2ccccc21,-0.0779%
20,O=C(CCc1nnc(Cc2c[nH]c3ccccc23)o1)NCC1CC12CCCCC2 (centres unmarked),6.98%
21,O=c1[nH]nc(CNc2cccc(C(F)(F)F)c2)c2ccccc12,-1.17%
22,COc1cccc(NC(=O)Cn2c(CCC(=O)O)ccc2-c2ccccc2)c1,13.2%

row,SMILES,"hERG current change (%, negative = inhibition) at 1uM"
1,Cc1cccn2c(=O)nc(SCC(=O)c3ccccc3)nc12,4.8%
2,COc1ccc(N2CCN(c3oc(COc4ccc(Cl)cc4Cl)nc3C#N)CC2)cc1,-13.1%
3,O=C(Nc1ccccc1C(=O)N/N=C/c1ccco1)c1ccccc1,-0.508%
4,N#Cc1c(-c2ccccc2Cl)noc1/C=C/Nc1ccc(C(=O)O)cc1,11.7%
5,CCOC(=O)C1=CC[C@H]2c3c(c4ccccc4n3C)C(=O)C1N2C(=O)OC(C)(C)C,8.93%
6,CCC(=O)N1CCc2cc(S(=O)(=O)CCC(=O)Nc3ccc(F)c(F)c3)ccc21,8.69%
7,Cc1cc(C(=O)CN2C(=O)NC(Cc3c[nH]c4ccccc34)C2=O)c(C)n1C (centres unmarked),14%
8,O=C(Oc1cccnc1)c1cccc(Cl)c1,14.7%
9,Cn1ncc2c(=O)n(/N=C/c3ccccc3)cnc21,15.6%
10,O=C(Nc1ccc2ccccc2c1)c1ccccc1F,15.9%
11,COc1cccc(/C=C/C(=O)OCC(=O)c2c[nH]c3ccccc23)c1,8.65%
12,COc1ccc(CCNC(=O)c2cc3c(=O)n4cccc(C)c4nc3n(Cc3ccco3)c2=N)cc1OC,-21.8%
13,Cc1c[n+](CC(=O)c2ccccc2)cs1.[Br-],16.1%
14,COc1ccccc1C(=O)NCCC(=O)NCC(c1ccccc1)N(C)C (centres unmarked),2.94%
15,CCc1cccc(NC(=O)CCCSc2nc3ccccc3[nH]2)c1,4.54%
16,CCn1cc(CNCc2cn(-c3ccccc3C)nc2-c2ccc(OC)c(F)c2)cn1,-3.6%
17,O=C(O)C1CCCN1C(=O)Nc1ccc(Cl)cc1 (centres unmarked),14.1%
18,CC(N=C1NS(=O)(=O)c2ccccc21)C(=O)Nc1ccc(F)cc1Cl (centres unmarked),6.09%
19,O=c1[nH]c2cc3ccccc3cc2nc1C(F)(F)F,16.2%
20,CN(C)CCCNCCCNC(=O)c1ccco1.O=C(O)/C=C/C(=O)O,8.9%
21,CCn1c(CNC(=O)c2ccco2)nnc1SCC(=O)Nc1ccc(Br)cc1F,-24.6%
22,CC(NCc1ccccc1)C1COc2ccccc2O1 (centres unmarked),8.41%

row,SMILES,"hERG current change (%, negative = inhibition) at 1uM"
1,Cc1c(CC(C)C)nc(N)c(C#N)c1-c1ccccc1,11%
2,O=C(Cn1nnc(-c2ccccc2)n1)OCc1csc(-c2ccccc2)n1,2.78%
3,COCCCn1c(N)c(C(=O)NCCC(C)C)c2nc3ccccc3nc21,-24.6%
4,O=C(NCCN1CCOCC1)c1cccc(NS(=O)(=O)c2ccc(Br)cc2)c1,-1.47%
5,CC(C)NC(=O)c1ccc2c(c1)N(Cc1ccccc1)C(=O)C(C)(C)O2,17.7%
6,Cc1ccc(NC(=O)CSc2ccc3c(c2)OCCO3)c(O)c1,3.26%
7,CCC1SC2=NC(C)=C(C(=O)OCCOC)C(c3ccc(C(=O)OC)cc3)N2C1=O (centres unmarked),0.478%
8,COC(=O)c1cn(NC(=O)c2cc([N+](=O)[O-])ccc2F)c(=O)c2ccccc12,6.49%
9,C=C1c2c(Cl)ccc(O)c2C(O)=C2C(=O)[C@]3(O)C(O)=C(C(N)=O)C(=O)[C@@H](N(C)C)[C@@H]3[C@@H](O)C12.O=C(O)c1cc(S(=O)(=O)O)ccc1O (some centres unmarked),8.12%
10,N#Cc1cccc(NC(=O)CSc2nnc(-c3n[nH]c4ccccc34)o2)c1,14.8%
11,CC(C)n1c(SCC(=O)N2CCCCC2)nc2c1c(=O)n(C)c(=O)n2C,8.64%
12,CCC(=O)N1CCc2cc(Br)cc(S(=O)(=O)NC3CCN(Cc4ccccc4)CC3)c21,8.26%
13,Cc1c(C(=O)Nc2ccc3nc(N4CCOCC4)sc3c2)oc2ccccc12,12.5%
14,COc1ccc(S(=O)(=O)n2nc(OC(=O)c3cccs3)cc2NC(=O)c2cccs2)cc1,1.73%
15,CCCC[C@H]1COCCS(=O)(=O)N1Cc1ccc(F)cc1,16.1%
16,COc1ccc(S(=O)(=O)N2CCC(C(=O)c3ccc4c(c3)OCCO4)CC2)cc1,0.357%
17,COc1ccccc1/C=N/NC(=O)c1cc2c(ccc3ccccc32)o1,8.3%
18,CN(C)C(/C=C/Nc1ccc(F)cc1F)=C(C#N)C#N,9.83%
19,COP(C)(=O)c1c(C)nn(-c2ccccc2)c1C (centres unmarked),-6.73%
20,O=C(OCC(=O)N1CCN(C(=O)COC(=O)c2ccncc2)CC1)c1ccncc1,15.7%
21,Cc1c(O)ccc(-c2[nH]ncc2-c2nc3ccccc3s2)c1O,12.7%
22,O=[N+]([O-])c1ccc(N2CCN(c3nc(-c4ccc(Cl)cc4)cs3)CC2)cc1,8.35%

row,SMILES,"hERG current change (%, negative = inhibition) at 1uM"
1,Cn1c(=NC(=O)CS(=O)(=O)c2ccccc2)sc2ccccc21,18.8%
2,Cc1cccc(NC(=O)N2CCC(n3nnc4cc(C)ccc43)CC2)c1,1.17%
3,C/C(=N\NC(=O)CN(c1ccccc1Br)S(C)(=O)=O)c1ccc2c(c1)OCCO2,-4.6%
4,COc1ccc(-c2csc(NC(=O)CN3C(=O)C4CCCCC4C3=O)n2)cc1OC (centres unmarked),-15.5%
5,O=S(=O)(Cc1ccccc1)NCCc1cccc(Cl)c1,7.72%
6,O=C(Cn1cnc2cc([N+](=O)[O-])ccc2c1=O)NCc1ccc(Cl)cc1,-1.65%
7,COC1(OC)N=C(N)C2(C#N)C(c3cccc(Oc4ccccc4)c3)C12C#N (centres unmarked),2.52%
8,CCn1ncc(CN2CCC(Oc3cc(C(=O)NC4CC4)ccc3OC)CC2)c1C,1.05%
9,COc1cc(C(=O)NCc2cccc3ccccc23)cc(Cl)c1OC,16.6%
10,Cc1onc(-c2ccccc2)c1C(=O)N=C(N)c1ccc(C(F)(F)F)cc1,14.6%
11,COc1ccccc1OCCNC(=O)c1cccc(S(=O)(=O)NCc2ccccc2)c1,-9.47%
12,O=Cc1c(Sc2ccccc2)nc2ccccn2c1=O,3.98%
13,CCOc1ccccc1NC(=O)C1CCN(S(=O)(=O)c2c(C)noc2C)CC1,17.4%
14,CC(=O)N1CCCN(C(=O)c2ccc3nc(Cc4ccccc4F)oc3c2)CC1,2.68%
15,COc1ccc(C(=O)N/C(=C\c2cn(C)c3ccccc23)C(=O)NCCCn2ccnc2)cc1,13.7%
16,Nc1cc(C(Cl)=C(Cl)Cl)c(S(N)(=O)=O)cc1S(N)(=O)=O,17.7%
17,CC1CCCC(C)N1CCCNC(=O)c1cc2c(=O)n(C)c3ccccc3c2n1C (centres unmarked),12.8%
18,Cc1cc(C)c(OCC(=O)N/N=C/c2ccc3c(c2)OCO3)c(C)c1,2.67%
19,Cc1ncsc1C(=O)O,12.3%
20,CCn1cc(CCC(=O)NC(C)c2ccccc2)c2ccccc21 (centres unmarked),8.93%
